The other results are listed elsewhere or left out. Sequences were assembled here from the parent chain. Inactive controls read about 0.05.
B1: TEV protease; numbered along this chain (parent)
chain: MGESLFKGPRDYNPISSSICHLTNESDGHTTSLYGIGFGPFIITNKHLFRRNNGTLVVQSLHGVFKVKDTTTLQQHLVDGRDMIIIRMPKDFPPFPQKLKFREPQREERICLVTTNFQTKSMSSMVSDTSCTFPSGDGIFWKHWIQTKDGQCGSPLVSTRDGFIVGIHSASNFTNTNNYFTSVPKNFMELLTNQEAQQWVSGWRLNADSVLWGGHKVFMVKPEEPFQPVKEATQL

Variants of: B1
Assay: raw area under fraction-flipped curve 0-4 h after induction (AUC4h, not background-subtracted), DNA-recorder readout of cleavage of the substrate (dimensionless); higher = more cleavage of the substrate by the protease variant
Settings: temperature: 34 °C; time window: 0-4 h after rhamnose induction
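Further: Bxb1 expression induced with 0.2% (w/v) L-rhamnose at OD600 near 0.5, cultures sampled hourly, flipped fraction per protease–substrate barcode pair counted by paired-end Illumina sequencing.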

Variant | area with substrate ENLYFQC | area with substrate ENLYFQD | area with substrate ENLYFQG | area with substrate ENLYFQH | area with substrate ENLYFQI | area with substrate ENLYFQK | area with substrate ENLYFQL | area with substrate ENLYFQN | area with substrate ENLYFQP | area with substrate ENLYFQS | area with substrate ENLYFQT | area with substrate ENLYFQV | area with substrate ENLYFQW | area with substrate ENLYFQY | area with substrate ENLYFQM | area with substrate ENLYFQR | area with substrate ENLYFQF | area with substrate ENLYFQQ
MGESLFKGPRDYNPISSSICHLTNESDGHTTSLYGIGFGPFIITNKHLFRRNNGTLVVQSLHGVFKVKDTTTLQQHLVDGRDMIIIRMPKDFPPFPQKLKFREPQREERICLVTTNFQTKSMSSMVSDTSCTFPSGDGIFWKSWIQTKDGQCGSPLVSTRDGFIVGIHSASNFTNTNNYFTSVPKNFMELLTNQEAQQWVSGWRLNADSVLWGGHKVFMVKPEEPFQPVKEATQL [H143S] | 0.085 | 0.0595 | 0.138 | 0.0806 | 0.0327 | 0.0648 | 0.0405 | 0.0904 | 0.0593 | 0.0921 | 0.0629 | 0.055 | 0.0507 | 0.0519 |  |  |  | 
MGESLFKGPRDYNPISSSICHLTNESDGHTTSLYGIGFGPFIITNKHLFRRNNGTLVVQSLHGVFKVKDTTTLQQHLVDGRDMIIIRMPKDFPPFPQKLKFREPQREERICLVTTNFQTKSMSSMVSDTTCTFPSGDGIFWKHWIQTKDGQCGSPLVSTRDGFIVGIHSASNFTNTNNYFTSVPKNFMELLTNQEAQQWVSGWRLNADSVLWGGHKVFMVKPEEPFQPVKEATQL [S130T] | 0.144 |  |  |  |  | 0.0507 | 0.0594 |  |  | 0.111 |  |  |  |  | 0.102 | 0.0704 |  | 
MGESLFKGPRDYNPISSSICHLTNESDGHTTSLYGIGFGPFIITNKHLFRRNNGTLVVQSLHGVFKVKDTTTLQQHLVDGRDMIIIRMPKDFPPFPQKLKFREPQREERICLVTTNFQTKSMSSMVSDTFCTFPSGDGIFWKHWIQTKDGQCGSPLVSTRDGFIVGIHSASNFTNTNNYFTSVPKNFMELLTNQEAQQWVSGWRLNADSVLWGGHKVFMVKPEEPFQPVKEATQL [S130F] | 0.0985 |  | 0.0557 |  | 0.0612 |  |  | 0.0912 |  | 0.0844 |  |  |  |  | 0.0853 | 0.062 | 0.0484 | 0.0863
MGESLFKGPRDYNPISSSICHLTNESDGHTTSLYGIGFGPFIITNKHLFRRNNGTLVVQSLHGVFKVKDTTTLQQHLVDGRDMIIIRMPKDFPPFPQKLKFREPQREERICLVTTNFQTKSMSSMVSDTSCTFPEGDGIFWKHWIQTKDGQCGSPLVSTRDGFIVGIHSASNFTNTNNYFTSVPKNFMELLTNQEAQQWVSGWRLNADSVLWGGHKVFMVKPEEPFQPVKEATQL [S135E] | 0.0687 | 0.068 | 0.0783 |  | 0.0561 | 0.0612 | 0.0507 | 0.0643 |  | 0.0788 | 0.0721 |  |  |  |  | 0.0701 |  | 
MGESLFKGPRDYNPISSSICHLTNESDGHTTSLYGIGFGPFIITNKHLFRRNNGTLVVQSLHGVFKVKDTTTLQQHLVDGRDMIIIRMPKDFPPFPQKLKFREPQREERICLVTTNFQTKSMSSMVSDTSCTFPMGDGIFWKHWIQTKDGQCGSPLVSTRDGFIVGIHSASNFTNTNNYFTSVPKNFMELLTNQEAQQWVSGWRLNADSVLWGGHKVFMVKPEEPFQPVKEATQL [S135M] | 0.0825 | 0.0419 | 0.0666 |  | 0.051 | 0.0659 | 0.067 | 0.0585 | 0.0355 | 0.077 | 0.0591 | 0.0588 |  | 0.0465 | 0.0512 | 0.0626 |  | 
MGESLFKGPRDYNPISSSICHLTNESDGHTTSLYGIGFGPFIITNKHLFRRNNGTLVVQSLHGVFKVKDTTTLQQHLVDGRDMIIIRMPKDFPPFPQKLKFREPQREERICLVTTNFQTKSMSSMVSDTSCTFPTGDGIFWKHWIQTKDGQCGSPLVSTRDGFIVGIHSASNFTNTNNYFTSVPKNFMELLTNQEAQQWVSGWRLNADSVLWGGHKVFMVKPEEPFQPVKEATQL [S135T] | 0.0918 |  | 0.0778 | 0.0571 |  | 0.0555 | 0.0593 | 0.0653 | 0.0725 | 0.0885 | 0.0545 |  | 0.0589 | 0.0633 |  | 0.0737 |  | 0.0618
MGESLFKGPRDYNPISSSICHLTNESDGHTTSLYGIGFGPFIITNKHLFRRNNGTLVVQSLHGVFKVKDTTTLQQHLVDGRDMIIIRMPKDFPPFPQKLKFREPQREERICLVTTNFQTKSMSSMVSDTSCTFPSGMGIFWKHWIQTKDGQCGSPLVSTRDGFIVGIHSASNFTNTNNYFTSVPKNFMELLTNQEAQQWVSGWRLNADSVLWGGHKVFMVKPEEPFQPVKEATQL [D137M] | 0.162 | 0.0706 | 0.0726 |  | 0.0522 | 0.0658 | 0.0485 | 0.0661 |  | 0.102 | 0.0673 |  | 0.0688 | 0.0655 | 0.0759 | 0.055 |  | 
MGESLFKGPRDYNPISSSICHLTNESDGHTTSLYGIGFGPFIITNKHLFRRNNGTLVVQSLHGVFKVKDTTTLQQHLVDGRDMIIIRMPKDFPPFPQKLKFREPQREERICLVTTNFQTKSMSSMVSDTSCTFPSGDGIFWKHEIQTKDGQCGSPLVSTRDGFIVGIHSASNFTNTNNYFTSVPKNFMELLTNQEAQQWVSGWRLNADSVLWGGHKVFMVKPEEPFQPVKEATQL [W144E] | 0.0951 |  |  | 0.0321 |  |  | 0.0687 | 0.0688 | 0.0791 | 0.08 | 0.0789 | 0.058 | 0.0565 | 0.091 | 0.0726 | 0.0566 |  | 
MGESLFKGPRDYNPISSSICHLTNESDGHTTSLYGIGFGPFIITNKHLFRRNNGTLVVQSLHGVFKVKDTTTLQQHLVDGRDMIIIRMPKDFPPFPQKLKFREPQREERICLVTTNFQTKSMSSMVSDTSCTFPSGDGIFWKHWIQTKDGKCGSPLVSTRDGFIVGIHSASNFTNTNNYFTSVPKNFMELLTNQEAQQWVSGWRLNADSVLWGGHKVFMVKPEEPFQPVKEATQL [Q151K] | 0.0649 |  |  | 0.0734 | 0.066 |  | 0.0784 |  |  | 0.0863 | 0.057 |  |  |  | 0.0755 |  |  | 
MGESLFKGPRDYNPISSSICHLTNESDGHTTSLYGIGFGPFIITNKHLFRRNNGTLVVQSLHGVFKVKDTTTLQQHLVDGRDMIIIRMPKDFPPFPQKLKFREPQREERICLVTTNFQTKSMSSMVSDTSCTFPSGDGIFWKHWIQTKDGVCGSPLVSTRDGFIVGIHSASNFTNTNNYFTSVPKNFMELLTNQEAQQWVSGWRLNADSVLWGGHKVFMVKPEEPFQPVKEATQL [Q151V] | 0.0807 |  |  |  | 0.0692 |  | 0.06 |  |  | 0.0935 | 0.0636 |  | 0.0793 | 0.0464 | 0.082 | 0.0628 | 0.0644 | 
